We go through 18 variants from paper PMC8110528.

To fix the notation:
B1: GFP-tagged wild-type MyD88 (cell-free expressed) [human] / itself (parent)
chain: MAAGGPGAGSAAPVSSTSSLPLAALNMRVRRRLSLFLNVRTQVAADWTALAEEMDFEYLEIRQLETQADPTGRLLDAWQGRPGASVGRLLELLTKLGRDDVLLELGPSIEEDCQKYILKQQQEEAEKPLQVAAVDSSVPRTAELAGITTLDDPLGHMPERFDAFICYCPSDIQFVQEMIRQLEQTNYRLKLCVSDRDVLPGTCVWSIASELIEKRCRRMVVVVSDDYLQSKECDFQTKFALSLSPGAHQKRLIPIKYKAMKKEFPSILRFITVCDYTNPCTKSWFWTRLAKALSLP

The variants in this experiment derive from B1. Kind of experiment: single-molecule spectroscopy (average brightness of cell-free expressed GFP-tagged protein). Particulars: with itself;; read off a plot.
For the variant chain 1 D234A, the response came out at 35 photons/ms.

Consider chain 1 F270A, for which the response worked out at 20 photons/ms.

chain 1 F270E: the response came out at 12 photons/ms.

Consider chain 1 K282A, for which the response is 140 photons/ms.

With chain 1 W284A, the response was determined as 35 photons/ms.

Regarding chain 1 L252P, the response came out at 220 photons/ms.

For the variant chain 1 F239A, the response is 240 photons/ms.

chain 1 P200A: the response stood at 65 photons/ms.

With chain 1 S209R, the response came out at 800 photons/ms.

Consider chain 1 G80K, for which the response was found to be 40 photons/ms.

Consider chain 1 R269A, for which the response is 60 photons/ms.

For chain 1 R196A, the response came to 25 photons/ms.

Consider chain 1 R288A, for which the response came out at 85 photons/ms.

As to chain 1 K238A, the response came to 190 photons/ms.

For chain 1 P245H, the response is 660 photons/ms.

For the variant chain 1 S242D, the response worked out at 210 photons/ms.

On to chain 1 T281P, for which the response amounted to 890 photons/ms.

On to chain 1 S244D, for which the response stood at 1100 photons/ms.
